From a collection of fitness landscapes (doi:10.1126/science.1257360)
The other results are listed elsewhere or left out.

B1: PhoQ; a variant is named by its letters at X, in order, P23837 (parent)
chain: MKKLLRLFFPLSLRVRFLLATAAVVLVLSLAYGMVALIGYSVSFDKTTFRLLRGESNLFYTLAKWENNKLHVELPENIDKQSPTMTLIYDENGQLLWAQRDVPWLMKMIQPDWLKSNGFHEIEADVNDTSLLLSGDHSIQQQLQEVREDDDDAEMTHSVAVNVYPATSRMPKLTIVVVDTIPVELKSSYMVWSWFIYVLSANLLLVIPLLWVAAWWSLRPIEALAKEVRELEEHNRELLNPATTRELTSLVRNLNRLLKSERERYDKYRTTLTDLTHSLKTPLXXLQXXLRSLRSEKMSVSDAEPVMLEQISRISQQIGYYLHRASMRGGTLLSRELHPVAPLLDNLTSALNKVYQRKGVNISLDISPEISFVGEQNDFVEVMGNVLDNACKYCLEFVEISARQTDEHLYIVVEDDGPGIPLSKREVIFDRGQRVDTLRPGQGVGLAVAREITEQYEGKIVAGESMLGGARMEVIFGRQHSAPKDE

Variants of: B1
Experiment: enrichment ratio after two sorts for PhoP signalling (ratio (wild type AVST 3.29)); higher = more functional
Conditions: with PhoP (E. coli)

| Variant | enrichment ratio |
| --- | --- |
| AHSQ | ≤ 0.25 |
| ETKV | ≤ 0.25 |
| PTHS | ≤ 0.25 |
| ASDM | ≤ 0.25 |
| FKSA | ≤ 0.25 |
| EEAI | ≤ 0.25 |
| YFAF | ≤ 0.25 |
| SVGD | ≤ 0.25 |
| DKAV | ≤ 0.25 |
| QHTY | ≤ 0.25 |
| NIEP | ≤ 0.25 |
| PFVC | ≤ 0.25 |
| YPYC | ≤ 0.25 |
| VGLP | ≤ 0.25 |
| MFCW | ≤ 0.25 |
| SMQD | ≤ 0.25 |
| RHIM | ≤ 0.25 |
| MPRA | ≤ 0.25 |
| YNMS | ≤ 0.25 |
| LYAA | ≤ 0.25 |
| TADY | 4.58 |
| TCCD | ≤ 0.25 |
| TFTA | 2.47 |
| FELH | 1.49 |
| MPIT | ≤ 0.25 |
| ERYQ | ≤ 0.25 |

| Variant | enrichment ratio |
| --- | --- |
| NDCH | 1.06 |
| ACRP | ≤ 0.25 |
| FKHY | ≤ 0.25 |
| HFFW | ≤ 0.25 |
| KMMK | ≤ 0.25 |
| PKWM | ≤ 0.25 |
| LEVV | ≤ 0.25 |
| SQNT | ≤ 0.25 |
| VNAK | ≤ 0.25 |
| ARKK | ≤ 0.25 |
| RVFM | ≤ 0.25 |
| GDME | ≤ 0.25 |
| NKSS | ≤ 0.25 |
| PIWL | ≤ 0.25 |
| GSNL | ≤ 0.25 |
| DWVV | ≤ 0.25 |
| IIIE | ≤ 0.25 |
| SWEA | ≤ 0.25 |
| RGLL | ≤ 0.25 |
| YSAD | ≤ 0.25 |
| DFKD | ≤ 0.25 |
| FSRF | ≤ 0.25 |
| YNMR | ≤ 0.25 |
| VAVS | ≤ 0.25 |
| EYKQ | ≤ 0.25 |
| TDQP | ≤ 0.25 |

| Variant | enrichment ratio |
| --- | --- |
| PVVG | ≤ 0.25 |
| PPNT | ≤ 0.25 |
| DGQV | ≤ 0.25 |
| ATLD | 6.71 |
| VRNW | ≤ 0.25 |
| RYIF | ≤ 0.25 |
| QFTQ | ≤ 0.25 |
| RYSP | ≤ 0.25 |
| EEMN | ≤ 0.25 |
| TVQP | ≤ 0.25 |
| FALW | ≤ 0.25 |
| AQVI | 18.1 |
| EICI | ≤ 0.25 |
| HPFA | ≤ 0.25 |
| PEDH | ≤ 0.25 |
| RWDF | ≤ 0.25 |
| KISF | ≤ 0.25 |
| YTYT | ≤ 0.25 |
| SQST | 6.97 |
| LSRG | ≤ 0.25 |
| FDMG | ≤ 0.25 |
| FVIT | ≤ 0.25 |
| GKNC | ≤ 0.25 |
| MFLL | ≤ 0.25 |
| SWFV | ≤ 0.25 |
| MPGN | ≤ 0.25 |

| Variant | enrichment ratio |
| --- | --- |
| FRDF | ≤ 0.25 |
| TEER | ≤ 0.25 |
| YFSC | ≤ 0.25 |
| DGEN | ≤ 0.25 |
| GWLS | ≤ 0.25 |
| DPIL | ≤ 0.25 |
| QARS | ≤ 0.25 |
| INPC | ≤ 0.25 |
| DTLH | ≤ 0.25 |
| IFNL | ≤ 0.25 |
| NQFP | ≤ 0.25 |
| FMYW | ≤ 0.25 |
| NMHK | ≤ 0.25 |
| PTFA | ≤ 0.25 |
| PCLE | ≤ 0.25 |
| LIYK | ≤ 0.25 |
| TMFT | ≤ 0.25 |
| VPGE | ≤ 0.25 |
| RQER | ≤ 0.25 |
| KDND | ≤ 0.25 |
| QDDV | ≤ 0.25 |
| TSTI | 22 |
| PVWW | ≤ 0.25 |
| EGNS | ≤ 0.25 |
| IMSI | ≤ 0.25 |
| YPMH | ≤ 0.25 |

| Variant | enrichment ratio |
| --- | --- |
| PNWQ | ≤ 0.25 |
| HDFQ | ≤ 0.25 |
| TCYE | ≤ 0.25 |
| KAWD | ≤ 0.25 |
| DCED | ≤ 0.25 |
| DVSM | ≤ 0.25 |
| NAWI | ≤ 0.25 |
| SIHL | 2.25 |
| WVLS | ≤ 0.25 |
| NGPF | ≤ 0.25 |
| STYN | ≤ 0.25 |
| DRIG | ≤ 0.25 |
| GGPQ | ≤ 0.25 |
| VWSY | ≤ 0.25 |
| DHLC | ≤ 0.25 |
| IHDQ | ≤ 0.25 |
| DMER | ≤ 0.25 |
| KDVG | ≤ 0.25 |
| EVDM | ≤ 0.25 |
| TPYC | ≤ 0.25 |
| ALNI | ≤ 0.25 |
| QEMA | ≤ 0.25 |
| SHNS | ≤ 0.25 |
| RPHH | 2.37 |
| WVRH | ≤ 0.25 |
| LEFT | 6.32 |

| Variant | enrichment ratio |
| --- | --- |
| WYYM | ≤ 0.25 |
| FEAK | ≤ 0.25 |
| GPYY | ≤ 0.25 |
| DPNH | ≤ 0.25 |
| HWVY | ≤ 0.25 |
| FFAD | ≤ 0.25 |
| NQMH | ≤ 0.25 |
| LTGC | ≤ 0.25 |
| HCYW | ≤ 0.25 |
| VYRM | ≤ 0.25 |
| WKWY | ≤ 0.25 |
| QRPV | ≤ 0.25 |
| TSEH | 1.16 |
| HYEC | ≤ 0.25 |
| IKTR | ≤ 0.25 |
| LRRV | ≤ 0.25 |
| VPTS | ≤ 0.25 |
| LYVY | ≤ 0.25 |
| YYPV | ≤ 0.25 |
| SRTE | ≤ 0.25 |
| RMWY | ≤ 0.25 |
| KVIV | ≤ 0.25 |
| WKCR | ≤ 0.25 |
